PubChem BioAssay AID1645882 (National Center for Advancing Translational Sciences (NCATS), 2021)
In all, about 16,000 compounds went through this assay and about 120 (0.75%) were called active. Roughly 4% stayed inconclusive and do not appear here. Calls follow the shape of the dose curve; as a rule, active = well fitted inhibition curve with a large enough effect; inconclusive = small, poorly fitted or top-dose-only effect; inactive = no such curve, though single readings can be large or run the other way. The list shows a part of the results.

Biological target: Rap guanine nucleotide exchange factor 3 (Homo sapiens) (UniProt O95398)
UniProt O95398, sequence (O95398 whole entry, looked up): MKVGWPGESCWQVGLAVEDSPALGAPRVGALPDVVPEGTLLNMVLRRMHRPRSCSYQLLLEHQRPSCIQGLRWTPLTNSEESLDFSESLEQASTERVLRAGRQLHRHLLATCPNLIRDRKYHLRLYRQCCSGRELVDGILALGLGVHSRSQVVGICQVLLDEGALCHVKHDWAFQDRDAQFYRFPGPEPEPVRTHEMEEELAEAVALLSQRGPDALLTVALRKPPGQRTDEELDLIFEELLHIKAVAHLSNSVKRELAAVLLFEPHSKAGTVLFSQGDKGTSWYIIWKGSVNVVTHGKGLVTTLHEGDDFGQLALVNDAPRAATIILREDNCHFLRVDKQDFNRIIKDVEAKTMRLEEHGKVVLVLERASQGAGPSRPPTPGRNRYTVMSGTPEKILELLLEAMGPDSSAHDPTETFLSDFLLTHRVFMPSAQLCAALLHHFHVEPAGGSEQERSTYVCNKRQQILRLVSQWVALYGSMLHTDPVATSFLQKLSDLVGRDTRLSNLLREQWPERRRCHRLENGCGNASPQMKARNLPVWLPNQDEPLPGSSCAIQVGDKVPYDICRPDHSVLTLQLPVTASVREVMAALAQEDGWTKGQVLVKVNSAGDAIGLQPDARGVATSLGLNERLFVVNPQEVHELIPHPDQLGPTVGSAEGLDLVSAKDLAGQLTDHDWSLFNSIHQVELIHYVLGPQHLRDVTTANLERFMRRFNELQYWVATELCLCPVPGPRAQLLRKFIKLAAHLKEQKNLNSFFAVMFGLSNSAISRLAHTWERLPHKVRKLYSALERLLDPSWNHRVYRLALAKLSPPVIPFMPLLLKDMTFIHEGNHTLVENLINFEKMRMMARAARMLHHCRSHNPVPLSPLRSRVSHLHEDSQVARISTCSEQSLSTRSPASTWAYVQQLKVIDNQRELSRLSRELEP
Experiment: Validation qHTS for antagonist of cAMP-regulated guanine nucleotide exchange factor 3 (EPAC1);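 also: plate controls were DMSO for no effect and ATA control for full effect; nearly all actives have a fitted effect of over 75% in size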
Conditions: EPAC1 Rap1B-BODIPY-GDP exchange, fluorescence; series mostly up to 150 µM; activity change, negative = inhibition: at the top concentration
Summary of the method: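 EPAC1 (100 nM) mixed with 250 nM RAP1B-BODIPY-GDP and 50 uM GDP; compounds in concentration series, 5 min at room temperature. Fluorescence (ex 480/em 540 nm) read every 5 min for 30 min; normalized to ATA control and DMSO.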

Activity change, negative = inhibition, inactive:
Cc1noc(C)c1C(=O)N1CCC[C@@]2(CCN(C(c3ccccc3)c3ccccc3)C2)C1 -3.55%
O=C(O)C1CCCNC1 (stereo not drawn)
Cc1c(N(C)C)c(=O)n(-c2ccccc2)n1C 14.3%
CN(C)C(=O)c1ccc(-c2cncnc2Nc2ccccc2)cc1 6.8%
O=C(O)C(S)[C@@H](S)C(=O)O (stereo partly drawn) 7.81%
CCCCC[C@H](O)/C=C/C1=C(CCCCCCC(=O)O)C(=O)CC1 19.9% [at 15.3 µM]
O=C(O)C[C@H]1c2cc(F)ccc2S(=O)(=O)N1C1CCCCC1 12.1%
COc1cccc(-c2nccc(NC3CCNCC3)n2)c1 8.74%
CCCc1c(-c2ccc(O)cc2)nn(-c2ccc(O)cc2)c1-c1ccc(O)cc1 20.8% [at 75.8 µM]
Cc1ccc(CN2CCCOCCS2(=O)=O)cc1 -2.55%
CC(=O)c1ccc(F)c(-c2cc(C)cc3c2OC(CNC(=O)C2CCCCN2C)C3)c1 (stereo not drawn) 3.64%
CS(=O)(=O)Nc1cccc(-c2ccc3ncnc(NC4CC4)c3c2)c1 9.68%
NC(=O)c1ccc2[nH]ccc2c1 -1.73% [at 75.8 µM]
COc1cc(=O)n2c(c1C(=O)NCc1ccco1)CCN(Cc1cccc(C(F)(F)F)c1)CC2 1.3%
CSc1nnc(CNC(=O)/C=C/c2ccccc2Cl)n1-c1ccc(F)cc1 -2.3%
COc1ccc(OC)c(CN2CCCC(n3cc(C(=O)N4CCCCC4)nn3)C2)c1 (stereo not drawn) -2.37%
Brc1ccc(CN2CC[C@H]3C=CCc4cccc(c43)C2)cc1 9.43%
CC1(C)OC2C(CO)OC(n3cnc4c(=O)[nH]c(N)nc43)C2O1 (stereo not drawn) -15.1%
c1ccc(-c2cccc(N3CC[C@@]4(CCCNC4)C3)c2)cc1 11%
COc1ccccc1-c1ccnc(-n2ncc(C(=O)N3CCN(C4CCCC4)CC3)c2-c2ccco2)n1 17.3%
CC(C)NC(=O)N1CC2(CCN(S(=O)(=O)c3ccccc3)CC2)C1 13.6%
O=C(c1cccc(F)c1)N1CCC[C@@]2(CCN(c3ccncc3)C2)C1 -1.54%
COC(=O)C1C(=O)C(C(=O)/C=C/c2ccco2)C(=O)CC1(C)C (stereo not drawn) 11.4%
CC(=O)[C@@]1(O)CC[C@H]2[C@@H]3C=C(Cl)C4=CC(=O)CC[C@]4(C)[C@H]3CC[C@@]21C -14.8%
N[C@H](Cc1ccc(O)cc1)C(=O)O 12%
Cc1cnc(C)c(-c2ccc(O)c(CN3CCN(C=O)CC3)c2)n1 9.76%
CN1CCN(c2nc(-c3cccc(NS(C)(=O)=O)c3)nc3ccccc23)CC1 9.6%
COc1cc2c(cc1OC)C1Cc3ccc(OC)c(OC)c3CN1CC2 (stereo not drawn) 10.8%
CCOC(=O)C1=C(COCCN)NC(C)=C(C(=O)OC)C1c1ccccc1Cl (stereo not drawn)
CC(=O)N1CCCC1C(=O)O (stereo not drawn) -10.4%
Oc1ccc(/C=C/c2cc(O)cc(O)c2)cc1
C=C1C([C@@]2(C)C(OC(C)=O)CC(=O)O[C@@](C)(COC(C)=O)C2CC(=O)OC)C(OC=O)C(OC(=O)C(O)C(C)CC)[C@]2(C)C(c3ccoc3)CC(=O)C12O (stereo partly drawn) -7.31%
COc1ccccc1C1CN(CC(=O)N2CCC(N3CCOCC3)CC2)Cc2ccccc2O1 (stereo not drawn) 33.1%
COc1cccc(-c2ccc3ncnc(NCc4cccnc4)c3c2)c1 -15.7%
OCC(O)COc1cccc2ccccc12 (stereo not drawn) 28.2%
FC(F)(F)c1cc(CN2CCC3(CCNCC3)CC2)cc(C(F)(F)F)c1 1.97%
CN1CC(O)c2cc(N=NC(N)=O)c(O)cc21 (stereo not drawn) -10.2%
CSc1ncnc2c1ncn2C1OC(CO)C(O)C1O (stereo not drawn) 10.7%
COCC(=O)N1CCC[C@@]2(CCN(C(=O)Nc3cccc(C#N)c3)C2)C1 19.2%
COCCn1c(=O)c(-c2ccc(Cl)cc2)nc2cnc(OCc3ccccc3)nc21 21.4%
COc1ccc(/C=C/C(=O)Nc2ccccc2C(=O)O)cc1OC
CCN(CC)CCNC(=O)c1c(C)[nH]c(/C=C2\C(=O)Nc3ccc(F)cc32)c1C -2.58%
COc1cccc(Cn2c(=O)cnc3cnc(Nc4cccc(OC)c4)nc32)c1 0.979%
COC(=O)[C@@H]1[C@@H]2C[C@H]3c4[nH]c5ccccc5c4CCN3C[C@@H]2CC[C@@H]1O
CCN(Cc1ccncc1)Cc1ccc2c(c1)CN(C(=O)c1ccc(C#CC(C)(C)O)o1)CCO2 16.2%
O=C(/C=C/c1ccc(O)cc1)c1cccs1 8.61%
CC(=O)Oc1c(C)cc(OCC(O)CNC(C)C)c(C)c1C (stereo not drawn) 18.2%
CC(=O)N1CCC2(CC1)CN(Cc1ccccc1)C2 14.5%
